Assay results published in PubChem BioAssay AID504339 (National Center for Advancing Translational Sciences (NCATS), 2011).
Among all 390,000 compounds or so, about 17,000 (4.4%) were called active. The inconclusive results got no clear call from the source; some entries with a clear call stand among them for comparison. Calls follow the shape of the dose curve; as a rule, active = well fitted inhibition curve with a large enough effect; inconclusive = small, poorly fitted or top-dose-only effect; inactive = no such curve, though single readings can be large or run the other way. A potency beside an inconclusive call is a rough fit, not a confirmed value.

Target: Lysine-specific demethylase 4A (Homo sapiens) (UniProt O75164)
UniProt O75164, sequence (O75164 whole entry, looked up, the tested form may be a part): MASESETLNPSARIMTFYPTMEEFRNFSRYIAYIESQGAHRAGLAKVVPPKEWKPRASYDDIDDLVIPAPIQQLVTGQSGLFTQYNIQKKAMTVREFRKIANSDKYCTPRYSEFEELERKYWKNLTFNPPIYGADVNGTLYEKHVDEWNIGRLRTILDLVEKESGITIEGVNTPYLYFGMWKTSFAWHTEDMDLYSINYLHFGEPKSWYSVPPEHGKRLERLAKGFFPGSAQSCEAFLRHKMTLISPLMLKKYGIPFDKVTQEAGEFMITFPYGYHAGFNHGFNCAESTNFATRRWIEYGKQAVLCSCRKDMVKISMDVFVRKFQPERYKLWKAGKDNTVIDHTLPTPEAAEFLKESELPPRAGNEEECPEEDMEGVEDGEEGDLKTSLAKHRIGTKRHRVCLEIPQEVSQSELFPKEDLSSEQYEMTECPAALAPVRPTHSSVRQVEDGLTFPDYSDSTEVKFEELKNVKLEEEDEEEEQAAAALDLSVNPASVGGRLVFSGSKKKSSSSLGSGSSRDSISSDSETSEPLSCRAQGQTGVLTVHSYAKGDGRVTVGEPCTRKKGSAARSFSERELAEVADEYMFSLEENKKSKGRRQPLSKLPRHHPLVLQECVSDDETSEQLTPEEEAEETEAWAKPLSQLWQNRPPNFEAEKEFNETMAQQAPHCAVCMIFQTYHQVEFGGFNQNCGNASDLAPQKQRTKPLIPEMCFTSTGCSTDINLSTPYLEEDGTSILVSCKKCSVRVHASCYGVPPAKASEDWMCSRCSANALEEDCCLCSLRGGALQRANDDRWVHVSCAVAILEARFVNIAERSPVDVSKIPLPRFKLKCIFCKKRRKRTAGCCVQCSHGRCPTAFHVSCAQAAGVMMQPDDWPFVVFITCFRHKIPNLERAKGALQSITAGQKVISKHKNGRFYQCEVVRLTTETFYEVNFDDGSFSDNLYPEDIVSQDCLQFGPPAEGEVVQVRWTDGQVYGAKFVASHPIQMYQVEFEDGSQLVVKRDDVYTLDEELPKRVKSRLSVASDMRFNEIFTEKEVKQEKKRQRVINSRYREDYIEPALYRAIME
Test: qHTS Assay for Inhibitors of JMJD2A-Tudor Domain; also: nearly all actives have a fitted effect of over 50% in size
Conditions: AlphaScreen JMJD2A-Tudor / H3K4me3 peptide binding; activity change, negative = inhibition: at 114 µM (top of the series)
% is scaled to controls: 0 for no effect and ±100 for the full control effect; potency is read from the fitted curve at half-maximal effect; tags tell the direction and shape of the fitted curve.

Structure (SMILES) | activity change, negative = inhibition | Potency
[O-]c1c[n+](-c2ccc(-[n+]3cc([O-])on3)cc2)no1 | inconclusive: -99.3% [inhibitor] | –
CCc1ccc2c(COC(=O)c3n[nH]c4ccccc34)cc(=O)oc2c1 | – | inconclusive: 89.1 µM [inhibitor, single point]
COc1cc(/C=N/Nc2ccc(Cl)c(C(=O)O)c2)ccc1OC(=O)c1ccccc1F | – | inconclusive: 20 µM [inhibitor, full curve]
Cc1ccc(C)c(NC(=O)C(OC(=O)c2cc[n+]([O-])cc2)c2ccccc2)c1 (configuration not stated) | – | inactive
COc1cc(NC(=O)c2nc3ccccc3nc2N2CCCCC2)cc(OC)c1OC | – | inconclusive: 44.7 µM [inhibitor, partial curve]
Cc1ccc(Nc2nc(CSc3nnc(-c4ccc(F)cc4)n3C)cs2)cc1 | – | inconclusive: 70.8 µM [inhibitor, single point]
Cc1ccc(-c2cc(C(=O)N/N=C/c3ccc(Cl)cc3)n[nH]2)o1 | – | inconclusive: 89.1 µM [inhibitor, partial curve]
O=S(=O)(NCC1CCCO1)c1ccc2ccccc2c1 (configuration not stated) | – | inconclusive: 39.8 µM [inhibitor, partial curve]
O=C(COc1ccccc1F)Nc1nc(-c2ccccn2)cs1 | – | active: 79.4 µM
CC1CCCN(C(=O)C2CCN(CC3CC=CCC3)CC2)C1 (configuration not stated) | – | active: 8.91 µM
O=C(Nc1ccc2c(c1)OCO2)N1CCCc2ccccc21 | – | inactive
Cc1cc(NS(=O)(=O)c2ccc(NC(=O)C(F)(F)F)cc2)nc(C)n1 | – | inconclusive: 100 µM [inhibitor, single point]
Clc1ccc(OCc2nc3ccccc3n2Cc2ccccc2)c(Cl)c1 | – | inactive
C/C(=N/NS(=O)(=O)c1cc(C)ccc1C)c1ccncc1 | – | inactive
Cc1ccc(C)c(NC(=S)c2ccccn2)c1 | – | active: 79.4 µM
COc1ccc(CCNC(=O)c2nnn(CC(=O)Nc3ccc(C)cc3C)c2N)cc1OC | – | inactive
COc1cc(C2C(C(=O)c3ccc(C)o3)=C(O)C(=O)N2Cc2ccccc2)ccc1O (configuration not stated) | – | inconclusive: 20 µM [inhibitor, partial curve, poor fit]
COc1ccc(OC)c(C(O)c2coc3ccc(O)c(CN4CCOCC4)c23)c1 (configuration not stated) | – | active: 89.1 µM
COc1cccc(CN2C(=O)c3ccccc3S2(=O)=O)c1 | – | inactive
Cc1ccc(OCCCCNC(C)c2ccccc2)c(C)c1 (configuration not stated) | – | active: 20 µM
COc1cc(NC(=O)N2CCC3(CC2)Nc2cc(F)ccc2-n2cccc23)cc(OC)c1OC | – | inconclusive: 35.5 µM [inhibitor, partial curve]
CCOc1ccc(S(=O)(=O)NCCC(=O)OCC(=O)NC(=O)c2cccn2C)cc1 | – | inactive
Cc1ccc(-c2nc(C#N)c(NCCCn3ccnc3)o2)cc1 | – | inconclusive: 89.1 µM [inhibitor, partial curve]
O=C(O)C1CSC(c2ccccc2)N1C(=O)c1ccco1 (configuration not stated) | – | inconclusive: 89.1 µM [inhibitor, single point]

Structure (SMILES) | activity change, negative = inhibition | Potency
Fc1ccccc1Nc1nc(Cl)nc(Cl)n1 | – | inconclusive: 28.2 µM [inhibitor, partial curve]
CC(C)Oc1ccc(/C(O)=C2/C(=O)C(=O)N(Cc3cccnc3)C2c2ccco2)cc1 (configuration not stated) | – | inconclusive: 89.1 µM [inhibitor, single point]
CC(C)c1ccc(C2CC(=O)c3cnc(N4CCc5ccccc5C4)nc3C2)cc1 (configuration not stated) | – | inconclusive: 100 µM [inhibitor, single point]
FC(F)(F)c1cc(CCN2CCNC[C@@H]2Cc2ccccc2)cc(C(F)(F)F)c1 | – | inconclusive: 56.2 µM [inhibitor, partial curve]
O=C(Nc1ccc(N2CCOCC2)c(Cl)c1)c1ncn[nH]1 | – | active: 56.2 µM
O=C(CCNS(=O)(=O)c1cccc2nsnc12)NCc1ccccc1 | – | inconclusive: 0.794 µM [inhibitor, full curve]
CC(C)CNc1ncnc2c1nnn2C | – | inactive
COc1ccc(-n2c(CN3CCN(c4ccccc4OC)CC3)nc3ccc([N+](=O)[O-])cc3c2=O)c(OC)c1 | – | inconclusive: 12.6 µM [inhibitor, partial curve, poor fit]
Cc1cccnc1NC(=S)NC(=O)c1cncc(Br)c1 | – | inconclusive: 2.82 µM [inhibitor, full curve, poor fit]
COc1ccc(/C=N/NC(=O)c2cccnc2)cc1CSc1nc2ccccc2s1 | – | inconclusive: 15.8 µM [inhibitor, full curve]
Cc1ccc(C(=O)/C=C/c2ccc(-c3ccc(C)cc3)o2)cc1 | – | active: 79.4 µM
CCc1nnc(NC(=O)c2cc(-c3ccco3)nc3ccccc23)s1 | – | inconclusive: 4.47 µM [inhibitor, partial curve]
COc1ccc(C2/C(=C(/O)c3ccc4c(c3)CC(C)O4)C(=O)C(=O)N2CCCN2CCOCC2)cc1 (configuration not stated) | – | inconclusive: 70.8 µM [inhibitor, partial curve, poor fit]
CNCCCCOc1ccc(C(C)(C)C)cc1Cl | – | active: 5.62 µM
COc1cc(/C=N/Nc2nc(=O)[nH]nc2C)cc(OC)c1O | – | inconclusive: 15.8 µM [inhibitor, full curve, poor fit]
COc1ccc2[nH]c(=O)c(CN(C(=O)c3ccco3)C3CCCCC3)cc2c1 | – | inactive
COc1ccc(-n2c(Cc3cccn3C)nnc2SCC(=O)Nc2cccc(Cl)c2)cc1 | – | inconclusive: 50.1 µM [inhibitor, partial curve]
COc1ccc(-c2nc(C#N)c(N3CCC(C)CC3)o2)cc1 | – | inconclusive: 50.1 µM [inhibitor, partial curve]
CCc1ccccc1NC(=O)C1CCN(C(=O)N2CC(C)Oc3ccc(Cl)cc32)CC1 (configuration not stated) | – | inconclusive: 35.5 µM [inhibitor, partial curve]
O=C(N/N=C/c1ccc[nH]1)c1cc(-c2ccc(Cl)cc2)nc2ccccc12 | – | inconclusive: 25.1 µM [inhibitor, single point]
C=CCOc1ccc(-c2nc3c(c(=O)[nH]c(=O)n3CCCC)n2C)cc1OC | – | active: 31.6 µM
COc1ccc(CNc2oc(Cc3cccc4ccccc34)nc2C#N)cc1 | – | inconclusive: 56.2 µM [inhibitor, partial curve]
Cc1cc(F)ccc1NC1(c2ccccc2)C(=O)c2ccccc2C1=O | – | inconclusive: 50.1 µM [inhibitor, partial curve]
COCCCNC(=O)C1CCC(=O)N(c2ccc3c(c2)OCO3)C1c1ccc(OC)cc1 (configuration not stated) | – | inactive

Structure (SMILES) | activity change, negative = inhibition | Potency
Cc1ccc(C)c(N2CCN(C(=O)CCn3c(=O)c4cccn4c4cccnc43)CC2)c1 | – | inconclusive: 28.2 µM [inhibitor, full curve, poor fit]
O=C(COc1nsnc1N1CCOCC1)Nc1cccc(Cl)c1 | – | inconclusive: 79.4 µM [inhibitor, partial curve]
c1ccc2c(c1)NCCS2 | – | active: 50.1 µM
COC(=O)C1=C(C)N(c2ccc(Br)cc2)C(=O)/C1=C\c1ccco1 | – | active: 17.8 µM
COc1ccc(C)cc1-n1[nH]nnc1=S | – | active: 25.1 µM
O=C(CC1C[C@H](C(=O)N2CCOCC2)[C@@]2(CCC3CCCC3)c3[nH]c4ccccc4c3CCN2C1=O)NCCCn1ccnc1 (some centres not stated) | – | inconclusive: 56.2 µM [inhibitor, partial curve]
O=C(NCc1cccs1)c1cccc(Nc2nc3ccc(Br)cc3[nH]2)c1 | – | inconclusive: 89.1 µM [inhibitor, partial curve]
CCOC(=O)c1c(O)c(O)c(C(=O)OCC)n1-c1ccccc1 | – | active: 35.5 µM
Cc1ccoc1C(=O)NCCNc1ccc(Cl)cc1[N+](=O)[O-] | – | inconclusive: 44.7 µM [inhibitor, single point]
COc1ccccc1NC(=O)CCS(=O)(=O)c1cc2c3c(c1)CCN3C(=O)CC2 | – | inconclusive: 89.1 µM [inhibitor, single point]
CCOc1ccc(N2CC(C(=O)OCC(=O)c3ccc(OC)cc3)CC2=O)cc1 (configuration not stated) | – | active: 56.2 µM
COc1ccc(/C(C)=N/Nc2nc(C)c(C(C)=O)s2)cc1 | – | inconclusive: 56.2 µM [inhibitor, partial curve]
CCOC(=O)c1cc(=O)[nH]c2ccccc12 | – | inactive
CC(=O)Nc1ccc(Nc2cc(C)nc(Nc3ccc(NC(C)=O)cc3)n2)cc1 | – | inconclusive: 44.7 µM [inhibitor, partial curve]
CCCCc1ccc(NC(=O)N2CCNC(=O)C2CC(=O)Nc2ccsc2C(=O)OC)cc1 (configuration not stated) | – | inconclusive: 79.4 µM [inhibitor, partial curve]
COc1ccc(Br)cc1/C=N/N1C(=O)CSC1=S | – | inconclusive: 50.1 µM [inhibitor, partial curve]
OCCN1CCN(c2ncnc3c2c(-c2ccccc2)cn3-c2ccc(F)cc2)CC1 | – | inconclusive: 44.7 µM [inhibitor, partial curve]
Cc1cc(C)c(OCCOCCN2CCCC2)c(C)c1 | – | inconclusive: 89.1 µM [inhibitor, single point]
CC(=O)c1ccc2c(c1)Cc1cc(C(C)=O)ccc1-2 | – | inactive
CCn1c(SCC(=O)Nc2oc(-c3ccccc3)c(-c3ccccc3)c2C#N)nnc1-c1ccncc1 | – | inconclusive: 50.1 µM [inhibitor, partial curve, poor fit]
Cc1ccccc1CSc1nnc(-c2ccccn2)n1N | – | active: 31.6 µM
O=C(COC(=O)c1cnc(Cl)c(Cl)c1)NCc1cccs1 | – | active: 22.4 µM
O=C1C(=Cc2ccco2)CCCC1=Cc1ccco1 | – | active: 56.2 µM
O=C1c2ccccc2C(=O)N1CC#CCN1CCN(C2CCCCC2)CC1 | – | inconclusive: 79.4 µM [inhibitor, partial curve]
